The source gives no read counts; variants with many changes may rest on few reads.
B1: CPEB3 Ribozyme (parent)
chain: UAACAGGGGGCCACAGCAGAAGCGUUCACGUCGCAGCCCCUGUCAGAUUCUGGUGAAUCUGCGAAUUCUGCUGUAUAUCUC

Variants of: B1
Assay: self-cleavage, relative activity (ratio to wild type); higher = more cleavage; in vitro, sequencing
Outline: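 CPEB3 self-cleaving ribozyme mutant libraries were made by rounds of error-prone PCR, barcoded, and transcribed in vitro with T7 RNA polymerase for 5 hours at 37°C. Cleavage occurred during transcription and a 15 min DNase I step before EDTA stop. RNAs were reverse transcribed with template switching and Illumina-sequenced, with DNA sequencing mapping barcodes to variants. Relative activity is the variant's cleaved/total read fraction divided by wild type's (minimum 5 reads), averaged across three batches.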

| Variant | self-cleavage |
| --- | --- |
| A5U G9A U78C C79U | 0.19 |
| A5U A64G U78C | 0.87 |
| G6A A13U U49C U51C A65G | 0.07 |
| G6A A18U U31G U66C U72C | 0.06 |
| A5U U31C U43C U74C U80G | 0.7 |
| G6A C12A A15G A45G | 0.07 |
| G6U A20G A35U | 0.39 |
| G6U C23A G53A | 0.25 |
| G6A A13U A18G U49C | 0.06 |
| G6A U51C G52C | 0.4 |
| A5U A45U A64G | 0.47 |
| A5U C11G U51G U58C A65G | 0.08 |
| G6A A13U U26A G63C A64U | 0.17 |
| A5U U31C A35G A45G A65G | 0.32 |
| G6A A15G A45C U78C | 0.23 |
| G6A A15G A21U U43C U80C | 0.27 |
| A5U A47G U48C G52U | 0.29 |
| G6A G9A G10C G46A A47U U54A U69C | 0.16 |
| G6A C14A U48C U51A A64U U80A | 0.05 |
| A5U G30A U41A A77G U78C | 0.11 |
| A5U G52C A64G | 1.04 |

| Variant | self-cleavage |
| --- | --- |
| G6U C17U A21G C50A | 0.34 |
| A5U U25G C34U U51A U54A U78G | 0.06 |
| A5U U31A U41C G53U A57U A65U U74A | 0.09 |
| G6U G8A G24A A57G U69A U72C U80C | 0.08 |
| G6U G24A U26C A45G U80C | 0.1 |
| A5U U25C C62U U72A | 0.35 |
| A5U U43A U49C G52A A65G | 0.45 |
| A5U C11G A28U | 0.46 |
| G6A G10C A20U U26C C29U G36C A75C | 0.05 |
| A5U G42U U74C | 0.24 |
| A5U U51C U60A A75G | 0.32 |
| G6U A18U C32U | 0.19 |
| A5U U25C A28C A64U A75G | 0.16 |
| G6A A21G C39A | 0.31 |
| G6U U25C A28G U54A A56G | 0.07 |
| A5U C29U U31C A35U U72A U80C | 0.3 |
| G6U G9A A45U U80C | 0.26 |
| A5U U76C A77G | 0.95 |
| G6A U26C C40A U72C U74A | 0.34 |
| G6U C32U A64G | 0.2 |
| A5U A35U U54C U80C | 0.67 |

| Variant | self-cleavage |
| --- | --- |
| G6A A13G A20G A47U | 0.24 |
| A5U U43G U51A U58C | 0.04 |
| A5U G10C A28G A64G U74A | 0.04 |
| G6A A56G U66C U72C | 0.07 |
| G6A G16A C39U U60C U67C A75G | 0.04 |
| A5U A45G U48C A65G U80A | 0.47 |
| A5U C11A C23U U51C A64U U78C U80C | 0.06 |
| G6A U26C U43A A56U | 0.07 |
| A5U C11G A28C U78C | 0.35 |
| G6A G16A A45G | 0.34 |
| A5U U26C A47U U54A A65G | 0.13 |
| G6A C11G A15G U51C A56G U76G U80C | 0.67 |
| A5U G53A A57G | 0.99 |
| G6A A15G C40U A45G U48C U60A | 0.07 |
| G6A U60C U69C | 0.17 |
| A5U C11A A15G A65G U66A | 0.11 |
| G6A A21G G30A | 0.05 |
| A5U C29A U41C | 0.36 |
| A5U G8A A28U U69C | 0.08 |
| G6A A18U U41G U48C U69C | 0.15 |
| G6A G30C A47G U67A U76C C79A | 0.04 |

| Variant | self-cleavage |
| --- | --- |
| G6A A21U A28G U41G G52U | 0.05 |
| G6A A28C C39A A64G U69A | 0.05 |
| G6U A13C A15U U43C U51C | 0.09 |
| A5U U60A U80A | 0.98 |
| G6A A15G U31C U41A U72C | 0.13 |
| G6A U41C U43G U69A U72A | 0.04 |
| G6U C32U A45G U48C A77U | 0.15 |
| A5U U26C A28G G30A U60C | 0.3 |
| A5U G30A U51C U72C | 0.15 |
| G6C G19U G33A G36A C38U U54A U60A | 0.05 |
| A5U C27A U31C A35G A65U U69C U76C | 0.08 |
| A5U G36C A47U U54C C62U | 0.26 |
| A5U G8A U43C U72C | 0.56 |
| G6A A15G A65G U78C U80C | 0.07 |
| G6A A15G A18C A21G U49C | 0.09 |
| G6A G46A A47U U54C | 0.23 |
| G6C U51C A56G G61A | 0.08 |
| G6C A28G U31A U41G U67C U74A | 0.2 |
| A5U U25C A65G | 0.35 |
| A5U U26C G30A U58C A64U U66C | 0.1 |
